PMC4336329 (PLoS ONE, 2015)
In all, about 310,000 compounds went through this assay and about 2,200 (0.71%) showed an effect of 50% or more. Effects have a minus sign here. The list shows a part of the results.

target: human ether-à-go-go-related gene (hERG) potassium channel (human, UniProt Q12809); assay: primary screen, population patch clamp on CHO cells stably expressing hERG
Sequence (Q12809 whole entry, looked up): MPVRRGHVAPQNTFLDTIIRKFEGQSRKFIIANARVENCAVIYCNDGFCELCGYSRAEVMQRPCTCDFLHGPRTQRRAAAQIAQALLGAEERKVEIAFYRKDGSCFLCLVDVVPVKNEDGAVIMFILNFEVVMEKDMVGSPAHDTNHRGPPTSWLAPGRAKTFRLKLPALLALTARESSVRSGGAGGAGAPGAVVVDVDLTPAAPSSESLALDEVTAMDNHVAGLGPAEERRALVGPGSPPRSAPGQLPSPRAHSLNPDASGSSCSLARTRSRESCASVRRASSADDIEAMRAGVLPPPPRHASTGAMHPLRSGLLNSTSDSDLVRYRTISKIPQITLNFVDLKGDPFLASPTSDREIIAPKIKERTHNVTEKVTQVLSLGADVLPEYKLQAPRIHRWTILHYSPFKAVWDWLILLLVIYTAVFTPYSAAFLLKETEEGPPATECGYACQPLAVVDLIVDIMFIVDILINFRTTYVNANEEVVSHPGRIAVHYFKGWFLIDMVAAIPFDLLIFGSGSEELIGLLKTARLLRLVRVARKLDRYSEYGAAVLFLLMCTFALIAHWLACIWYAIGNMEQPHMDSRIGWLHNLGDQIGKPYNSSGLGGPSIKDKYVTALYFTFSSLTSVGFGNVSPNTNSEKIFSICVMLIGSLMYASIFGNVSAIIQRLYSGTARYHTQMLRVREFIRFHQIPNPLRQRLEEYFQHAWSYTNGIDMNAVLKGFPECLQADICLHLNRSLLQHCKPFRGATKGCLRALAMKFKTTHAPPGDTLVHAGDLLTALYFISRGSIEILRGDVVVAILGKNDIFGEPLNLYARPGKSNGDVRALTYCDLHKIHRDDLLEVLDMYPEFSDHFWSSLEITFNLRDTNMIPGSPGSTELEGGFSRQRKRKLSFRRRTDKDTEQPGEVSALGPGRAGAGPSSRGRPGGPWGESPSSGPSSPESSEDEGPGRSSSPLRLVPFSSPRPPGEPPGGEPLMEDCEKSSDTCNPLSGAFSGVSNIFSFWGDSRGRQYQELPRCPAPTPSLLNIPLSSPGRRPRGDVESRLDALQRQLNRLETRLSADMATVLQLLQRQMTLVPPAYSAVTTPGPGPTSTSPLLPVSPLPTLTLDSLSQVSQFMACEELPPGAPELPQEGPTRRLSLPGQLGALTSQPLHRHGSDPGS

Row | SMILES | hERG current change (%, negative = inhibition) at 1uM [%]
1 | Nc1c(C(=O)NCc2ccccc2)nnn1Cc1cccc(Cl)c1 | 10.7
2 | O=C(c1ccc(Cn2c(=S)[nH]c3cc4c(cc3c2=O)OCO4)cc1)N1CCN(c2ncccn2)CC1 | 5.57
3 | Cc1cc(=O)oc2cc3c(cc12)CCCN3 | 15.7
4 | C=CCc1ccccc1OCCNCCCOC.O=C(O)C(=O)O | 0.365
5 | COc1ccc(-c2ccc(F)cc2)cc1[C@H]1[C@H]2C=CC[C@@H](C)[C@@H]2C(=O)N1Cc1ccccc1 | 13
6 | Oc1ccc(C[C@@H]2CNCCN2CCCCC2CCCCC2)cc1 | 10.4
7 | O=C(CN1C(=O)S/C(=C\c2ccc(Cl)cc2)C1=O)NNC(=O)c1ccccc1O | 3.99
8 | CN(C(=O)c1cc2c(=O)n3ccccc3nc2s1)C1CCCCC1 | 10.1
9 | O=C(Nc1ccccc1C(=O)N1CCOCC1)c1ccc(CSc2ccccc2)cc1 | 4.5
10 | C#CCOCCOCCOCCNc1nc(N2CCN(C(=O)CCCCCCCCCCNC(=O)[C@H](CO)n3cc(CCCSC)nn3)CC2)nc(N2CCN(C(=O)CCCCCCCCCCNC(=O)[C@H](CCCCN)n3cc(C[C@@H](C)CC)nn3)CC2)n1 | 6.98
11 | O=S(=O)(c1ccc(F)cc1)N1CCCC1 | 11.4
12 | CCC(Sc1nc(C)cc(=O)[nH]1)C(=O)Nc1ccc(Cl)cn1 (centres unmarked) | 19.4
13 | Clc1ccc(-c2cn3ccccc3n2)cc1 | 11.4
14 | C=CCNC(=S)N/N=C/c1ccc(-c2ccc(OC)cc2)o1 | 9.61
15 | COc1ccccc1NC(=O)CN1CCC(c2nc3ccccc3[nH]2)CC1 | -9.36
16 | C=CCn1c(SC2CCOC2=O)nc2sc(C)c(C)c2c1=O (centres unmarked) | 6.32
17 | COC(=O)Cc1cc(=O)n2[nH]c(C)cc2n1 | 12.2
18 | CCc1nnc(NC(=O)Cn2c(=O)oc3ccccc32)s1 | 3.26
19 | CC1(C)CC(=O)C=C(Nc2ccc(F)cc2)C1 | 2.97
20 | Cc1ccc(NC(=O)C2(S(=O)(=O)c3ccc(Cl)cc3)CC2)cc1 | 4.56
21 | COC(=O)[C@@H]1Cc2c([nH]c3ccccc23)C(C)(C)N1C(=O)CCl | 6.4
22 | C=C(C)CNC(=S)N1CCN(C(c2ccccc2)c2ccccc2)CC1 | 9.41
23 | Cn1cc(C(=O)N2CCc3ccccc3C2)c(=O)c2cc(S(=O)(=O)N3CCOCC3)ccc21 | 7.33

Row | SMILES | hERG current change (%, negative = inhibition) at 1uM [%]
24 | COc1ccc(/C=C2\N=C(SC)NC2=O)cc1 | 11.3
25 | O=c1[nH]c2ccccc2c(O)c1SCCO | 9.45
26 | NC(=O)C1CCN(C(=O)/C(=C/c2ccccc2)NC(=O)c2ccccc2)CC1 | 14.9
27 | COc1ccc(/C=C2\CCCCC2=O)cc1 | 3.66
28 | COC(=O)C1CCN(c2cc(=O)n(-c3ccccc3Cl)c(=O)[nH]2)CC1 | 9.23
29 | COc1cccc(CN(C)Cc2nc(C3CC3)no2)c1 | 15.2
30 | Cc1c(S(=O)(=O)NCc2ccccc2)c(=O)n(C)c(=O)n1C | 13.5
31 | COc1ccc(NC(=O)C(c2ccccc2)N(C)C(=O)c2cnccn2)cc1 (centres unmarked) | 11.4
32 | c1coc(-c2ccnc(-c3ccncc3)n2)c1 | 12.7
33 | Cc1cccc(C)c1NC(=O)C1CSC2(C)CCC(=O)N12 (centres unmarked) | 6.49
34 | CCCCC(=O)Nc1ccc(C(=O)N2CCN(c3ccccc3OC)CC2)cc1 | 4.8
35 | Cl.O=C(CN1CCN(Cc2ccccc2)CC1)Nc1ccc2c(c1)CCC2 | -5.24
36 | CC1(CCc2ccc3c(c2)OCO3)NC(=O)c2ccccc2N1 (centres unmarked) | 0.0141
37 | C=CCSC(CC)(CC)C(N)=O | 9.62
38 | CCc1cc2c(SCC#N)ncnc2s1 | 9.82
39 | CCOC1=NC(C(=O)O)c2ccccc2/C(=C(/C)Cl)N1 (centres unmarked) | 7.64
40 | CCCCCCCCC/C(=N\O)c1ccccn1 | 7.06
41 | CCNc1nc(NC(C)C)nc(OCC)n1 | -0.429
42 | O=C(NC(=C(Cl)Cl)S(=O)(=O)c1ccc(Cl)cc1)c1ccccc1 | 12.8
43 | Cc1cc(-c2ccccc2C(=O)O)on1 | 12.2
44 | O=C(Nc1ccc2ccccc2c1)c1cccc([N+](=O)[O-])c1 | 18.6
45 | CCC(=O)NS(=O)(=O)c1ccc(N=NN2CCCCC2)cc1 | 10.2
46 | Cc1cc(NC(=O)c2cccc(C(=O)Nc3cc(C)on3)n2)no1 | 12.4

Row | SMILES | hERG current change (%, negative = inhibition) at 1uM [%]
47 | Cn1c(-c2ccc(Br)cc2)cnc1NCc1ccc(C#N)cc1.O=C(O)C(=O)O | -77.2
48 | Cc1ccnc(NC(=O)CCCOc2ccc(Cl)cc2C)c1 | 15.8
49 | O=Cc1cnc2ccccc2c1-c1ccccc1 | 8.4
50 | CN1CCN(C2=Nc3c(Cl)cc(Cl)c4cccc2c34)CC1 | 5.39
51 | CC(OC(=O)c1cccc(N2C(=O)c3ccccc3C2=O)c1)C(=O)Nc1ccc(N(C)C)cc1 (centres unmarked) | 14.4
52 | COCCOc1cc(NC(=O)c2cccc(OC)c2)c(Cl)cc1Cl | 11.4
53 | CC1=NOC2(C1)/C(=N/O)CCC/C2=N\O (centres unmarked) | 7.43
54 | COc1cc2ccccc2cc1C(=O)N1CCN(c2ccccc2O)CC1 | -7.84
55 | CCCCCOc1ccc(NS(C)(=O)=O)cc1 | 0.876
56 | CCn1cc(C(=O)OCC(=O)Nc2ccc(S(=O)(=O)N3CCCC3)cc2)c(=O)c2ccc(C)nc21 | 16.4
57 | CC(C)(C)NC(=O)COC(=O)c1ccc(Cl)nc1 | 3.28
58 | Cc1oc(-c2ccccc2F)nc1CSCC(=O)NC1CCC(C)CC1 (centres unmarked) | 18.4
59 | CC1=C(C(=O)OCC2CCCO2)C(c2ccccc2)C2=C(CCCC2=O)N1 (centres unmarked) | 9.48
60 | CN(C)/C=C1\NC(=S)N(c2ccccc2)C1=O | 16.9
61 | CCC1C(=O)N=C(SCC(=O)Nc2ccccc2)NC1=O (centres unmarked) | 9.52
62 | N#Cc1cnn2ccc(-c3ccc4c(c3)CCC4)nc12 | 17.1
63 | CC(=O)c1c(C)[nH]c(C(=O)Nc2ccc(Cl)c(S(=O)(=O)N(C)C)c2)c1C | 5.16
64 | Cc1c(C(=O)NC2CCC(C)CC2)oc2ccccc12 (centres unmarked) | 4.4
65 | COc1ccc(NC(=O)CN(C)C(=O)CCCc2nc3ccccc3s2)cc1 | -15.7
66 | O=C(Oc1ccc(Cl)c2cccnc12)c1cccc([N+](=O)[O-])c1 | -2.35
67 | Cn1c(Cc2ccccc2)nnc1SCC(=O)Nc1cccc(S(=O)(=O)NC2=NCCCCC2)c1 | 0.421
68 | CSc1cnn(Cc2ccccc2)c(=O)c1SCc1ccccc1 | 5.14
69 | Nc1n[nH]c(C2CCCCC2)n1 | 18.7

Row | SMILES | hERG current change (%, negative = inhibition) at 1uM [%]
70 | O=[N+]([O-])c1ccc2c(c1)Nc1nc3ccccc3nc1N2 | 12.7
71 | CCn1nc(NS(=O)(=O)c2ccc(C)cc2)c2cc3ccccc3nc21 | 15.2
72 | Cc1ccc(NC(=O)NC2CCCc3ccccc32)cc1 (centres unmarked) | 4.74
73 | COc1ccc(C(=O)N2CCN(Cc3cc(OC)ccc3OC)CC2)cc1.O=C(O)C(=O)O | -12.2
74 | Cc1ccc(OCC(=O)NC(=S)Nc2ccc(Br)cn2)cc1 | 15.3
75 | CCOC(=O)c1c(-c2ccccc2)oc2ccc(OCC(O)CNCCN(C)C)cc12 (centres unmarked) | 9.84
76 | CCOC(=O)c1c(NC(=O)CN2CCN(C(=O)c3ccco3)CC2)sc(C(N)=O)c1C | 5.04
77 | CCC(=O)Nc1c(C)c(CC)nc2ccccc12 | -6.64
78 | COc1cccc(C2(O)CCN(C(=O)Cc3cccnc3)CC2)c1 | 14.1
79 | Cc1ccccc1NC(=O)c1sc2nc[nH]c(=O)c2c1C | 13.9
80 | Cn1c(Cn2c(=O)sc3ccccc32)nnc1SCC(=O)NCCc1ccccc1 | 3.23
81 | CC1CCCCC1NC(=O)CSC1=Nc2ccccc2C2CC=NN12 (centres unmarked) | 0.298
82 | CCCCN(CCCC)S(=O)(=O)c1ccc(C(=O)Nc2nnc(CSC)o2)cc1 | 3.39
83 | COC(=O)NNC(=S)NCc1ccccc1 | 7.51
84 | Cc1ccc(NC(=O)CSc2n[nH]c(-c3ccncc3)n2)cc1C | 15.6
85 | CCc1ccc(N(C(=O)c2snc(C(N)=O)c2N)C(C(=O)NCCC(C)C)c2c[nH]c3ccccc23)cc1 (centres unmarked) | 2.59
86 | COc1ccc(NC(=O)CC2SC(=NCC3CCCO3)NC2=O)c([N+](=O)[O-])c1 (centres unmarked) | 4.6
87 | CC(C)Sc1oc(-c2ccco2)nc1S(=O)(=O)c1ccc(F)cc1 | 2.49
88 | COC(=O)Cc1ccc(NC(=S)N2CCN(c3cc(Cl)ccc3C)CC2)cc1 | 17.4
89 | COc1cc(F)ccc1S(=O)(=O)N1CCN(C23CC4CC(CC(C4)C2)C3)CC1 | 7.16
90 | COc1ccccc1NC(=O)N[C@@H](Cc1c[nH]c2ccccc12)C(=O)NN | 11.6
91 | CC(C)CNc1oc(-c2ccc(F)cc2)nc1C#N | 11.8
92 | C/C(=N\NC(=O)c1ccn(C)n1)c1ccco1 | 4.8
